These results are taken from paper PMC3656144.

Assay [1] deals with T1, GST-fused CED-9 (C. elegans) (UniProt P41958).
T1 sequence: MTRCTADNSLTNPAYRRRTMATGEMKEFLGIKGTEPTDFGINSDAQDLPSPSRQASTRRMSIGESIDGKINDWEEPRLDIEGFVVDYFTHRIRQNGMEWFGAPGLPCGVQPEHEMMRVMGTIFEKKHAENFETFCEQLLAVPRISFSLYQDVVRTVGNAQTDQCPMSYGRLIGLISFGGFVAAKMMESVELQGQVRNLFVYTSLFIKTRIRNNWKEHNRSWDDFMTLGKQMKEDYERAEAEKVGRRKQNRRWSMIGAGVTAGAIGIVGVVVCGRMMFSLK
Nature of the assay: pull-down; GST or GST fusion (3 µg) immobilized on glutathione-Sepharose beads, incubated with 35S-labeled in vitro translated protein at 4°C for ≥4 h, washed extensively; autoradiography; only the target purified.

The target in assay [2] is T2, GST-fused intracellular region of CED-1 (CED-1C, amino acids 933–1111) (C. elegans) (UniProt Q9XWD6).
T2 sequence: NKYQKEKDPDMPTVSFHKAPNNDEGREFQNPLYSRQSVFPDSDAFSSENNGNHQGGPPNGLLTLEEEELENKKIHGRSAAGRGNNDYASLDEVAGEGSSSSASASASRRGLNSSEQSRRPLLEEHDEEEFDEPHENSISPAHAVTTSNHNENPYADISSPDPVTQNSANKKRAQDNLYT
The assay is described as above.

Assay [3] concerns the target T3, GST-fused LST-4 (C. elegans) (UniProt Q8I4E2).
T3 sequence: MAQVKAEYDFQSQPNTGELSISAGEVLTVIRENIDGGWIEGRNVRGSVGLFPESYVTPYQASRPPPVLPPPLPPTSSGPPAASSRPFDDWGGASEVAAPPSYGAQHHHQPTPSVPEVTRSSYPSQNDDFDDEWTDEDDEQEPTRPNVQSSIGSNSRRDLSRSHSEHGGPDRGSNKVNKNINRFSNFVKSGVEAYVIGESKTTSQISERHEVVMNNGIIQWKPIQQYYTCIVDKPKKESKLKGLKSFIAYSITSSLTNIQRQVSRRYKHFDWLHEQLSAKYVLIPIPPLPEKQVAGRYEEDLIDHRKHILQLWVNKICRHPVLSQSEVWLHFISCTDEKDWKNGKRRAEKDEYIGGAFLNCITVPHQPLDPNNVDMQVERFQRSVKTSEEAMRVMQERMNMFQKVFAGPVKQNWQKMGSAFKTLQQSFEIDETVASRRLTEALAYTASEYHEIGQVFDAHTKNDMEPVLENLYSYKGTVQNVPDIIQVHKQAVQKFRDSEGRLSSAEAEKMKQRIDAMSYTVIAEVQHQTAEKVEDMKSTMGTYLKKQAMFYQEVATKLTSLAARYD
The assay is described as above.

Assay [4] addresses T4, GST-fused CED-6 (C. elegans) (UniProt O76337).
T4 sequence: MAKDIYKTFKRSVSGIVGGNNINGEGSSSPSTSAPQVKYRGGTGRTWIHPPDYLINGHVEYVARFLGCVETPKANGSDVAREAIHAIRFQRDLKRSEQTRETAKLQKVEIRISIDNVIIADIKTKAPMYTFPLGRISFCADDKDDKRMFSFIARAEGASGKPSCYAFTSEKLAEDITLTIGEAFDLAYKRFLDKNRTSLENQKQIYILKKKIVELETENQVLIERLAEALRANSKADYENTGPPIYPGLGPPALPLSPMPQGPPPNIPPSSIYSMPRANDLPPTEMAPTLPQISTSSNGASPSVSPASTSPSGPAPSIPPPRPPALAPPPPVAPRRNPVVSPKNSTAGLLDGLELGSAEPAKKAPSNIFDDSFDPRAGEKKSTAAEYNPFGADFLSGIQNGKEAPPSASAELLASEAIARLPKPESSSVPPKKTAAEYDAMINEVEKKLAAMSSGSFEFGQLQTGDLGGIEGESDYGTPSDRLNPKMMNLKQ
The description is as above.

Assay [5] deals with T5, GST-fused DYN-1 (C. elegans) (UniProt P39055).
T5 sequence: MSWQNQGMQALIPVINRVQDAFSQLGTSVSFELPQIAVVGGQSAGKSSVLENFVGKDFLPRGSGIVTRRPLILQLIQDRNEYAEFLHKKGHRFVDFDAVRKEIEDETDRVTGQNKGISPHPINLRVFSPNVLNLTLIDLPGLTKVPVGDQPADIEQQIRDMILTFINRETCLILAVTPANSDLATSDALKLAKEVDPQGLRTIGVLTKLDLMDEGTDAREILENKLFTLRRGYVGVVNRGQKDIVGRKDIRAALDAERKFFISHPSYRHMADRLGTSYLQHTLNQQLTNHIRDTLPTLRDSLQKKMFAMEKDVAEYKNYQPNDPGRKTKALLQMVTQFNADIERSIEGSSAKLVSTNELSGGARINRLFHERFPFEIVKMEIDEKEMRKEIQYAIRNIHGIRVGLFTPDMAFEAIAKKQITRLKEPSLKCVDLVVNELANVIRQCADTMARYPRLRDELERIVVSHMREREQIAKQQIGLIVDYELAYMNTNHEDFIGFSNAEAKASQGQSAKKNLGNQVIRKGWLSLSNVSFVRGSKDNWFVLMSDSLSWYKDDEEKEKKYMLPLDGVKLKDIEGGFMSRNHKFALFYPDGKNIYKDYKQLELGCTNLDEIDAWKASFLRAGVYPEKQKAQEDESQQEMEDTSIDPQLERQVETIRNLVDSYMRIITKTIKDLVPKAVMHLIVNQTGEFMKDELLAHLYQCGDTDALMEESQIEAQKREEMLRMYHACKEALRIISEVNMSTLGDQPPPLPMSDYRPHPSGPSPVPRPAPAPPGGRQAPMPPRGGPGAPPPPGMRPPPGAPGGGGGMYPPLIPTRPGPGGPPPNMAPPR
Described as above.

In assay [6] the target is T6, endogenous CED-1 (C. elegans (endogenous in whole animal lysate)) (UniProt Q9XWD6).
T6 sequence: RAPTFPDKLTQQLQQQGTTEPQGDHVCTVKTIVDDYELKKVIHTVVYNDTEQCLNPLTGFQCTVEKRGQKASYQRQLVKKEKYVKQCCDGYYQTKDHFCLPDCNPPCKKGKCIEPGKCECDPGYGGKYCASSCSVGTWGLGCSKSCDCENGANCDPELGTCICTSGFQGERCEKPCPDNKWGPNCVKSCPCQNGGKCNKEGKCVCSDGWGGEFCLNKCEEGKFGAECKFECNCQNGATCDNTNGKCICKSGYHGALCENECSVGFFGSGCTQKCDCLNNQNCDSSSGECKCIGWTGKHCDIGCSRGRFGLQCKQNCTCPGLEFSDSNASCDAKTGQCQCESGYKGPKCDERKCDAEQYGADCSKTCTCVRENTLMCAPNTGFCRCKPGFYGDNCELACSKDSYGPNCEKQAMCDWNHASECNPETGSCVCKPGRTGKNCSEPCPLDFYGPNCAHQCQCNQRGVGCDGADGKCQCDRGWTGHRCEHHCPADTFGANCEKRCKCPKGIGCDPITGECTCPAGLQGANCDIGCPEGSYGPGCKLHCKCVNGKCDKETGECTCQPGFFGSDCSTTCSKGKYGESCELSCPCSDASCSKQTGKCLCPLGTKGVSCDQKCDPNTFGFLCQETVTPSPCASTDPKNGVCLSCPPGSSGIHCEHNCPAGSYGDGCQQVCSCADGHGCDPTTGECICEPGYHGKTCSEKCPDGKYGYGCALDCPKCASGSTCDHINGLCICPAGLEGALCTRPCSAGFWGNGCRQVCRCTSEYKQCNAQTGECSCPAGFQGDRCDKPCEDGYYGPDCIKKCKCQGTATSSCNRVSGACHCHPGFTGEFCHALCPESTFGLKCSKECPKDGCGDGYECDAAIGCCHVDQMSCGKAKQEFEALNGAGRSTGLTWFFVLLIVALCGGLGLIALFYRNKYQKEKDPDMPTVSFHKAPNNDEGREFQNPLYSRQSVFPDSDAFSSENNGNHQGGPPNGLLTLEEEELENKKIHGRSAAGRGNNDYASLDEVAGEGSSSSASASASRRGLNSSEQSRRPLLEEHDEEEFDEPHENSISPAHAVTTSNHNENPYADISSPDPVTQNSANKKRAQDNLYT
The assay is described as follows: co-IP; IP of endogenous CED-1 or CED-6 with CED-1C or CED-6 antibody from whole cell lysates of N2 or GFP-fusion-expressing animals (controls: ced-1(e1735), ced-1 RNAi, ced-6 RNAi); blots with CED-1C, CED-6 and GFP antibodies.

The target of assay [7] is T7, endogenous CED-6 (C. elegans (endogenous in whole animal lysate)) (UniProt O76337).
T7 sequence: T4 sequence
The assay is described as above.

Results are given in words; binding and its absence hold for the method and conditions named. In cells and extracts the contact can be indirect. Some results given as binding are weak or reduced against the parent protein; the word gives no strength. Sequences can lack the tags named with a protein.

B1: ^35S-labeled DPY-23 (protein, UniProt P35603 1-441)
chain: MIGGLFVYNHKGEVLISRIYRDDVTRNAVDAFRVNVIHARQQVRSPVTNMARTSFFHVKRGNVWICAVTRQNVNAAMVFEFLKRFADTMQSYFGKLNEENVKNNFVLIYELLDEILDFGYPQNTDPGVLKTFITQQGVRTADAPVPVTKEEQSQITSQVTGQIGWRREGIKYRRNELFLDVIEYVNLLMNQQGQVLSAHVAGKVAMKSYLSGMPECKFGINDKITIEGKSKPGSDDPNKASRAAVAIDDCQFHQCVKLTKFETEHAISFIPPDGEYELMRYRTTKDIQLPFRVIPLVREVSRNKMEVKVVVKSNFKPSLLAQKLEVRIPTPPNTSGVQLICMKGKAKYKAGENAIVWKIKRMAGMKESQISAEIDLLSTGNVEKKKWNRPPVSMNFEVPFAPSGLKVRYLKVFEPKLNYSDHDVIKWVRYIGRSGLYETRC
modifications: 35S-labeled
With B1, the binding entry in assay [1] is reported as “no binding”; in assay [2], “no binding”; in assay [3], “binds”; in assay [4] it was “binds”; in assay [5], “binds”.

B2: APA-2::GFP (protein, UniProt Q22601 1-925)
chain: MPAVKGDGMRGLAVFISDIRNCKSKEAELKRINKELANIRSKFKGDKTLDGYQKKKYVCKLLFIFLLGNDIDFGHMEAVNLLSSNKYTEKQIGYLFISVLIEQQSDLMKLIVQGIRNDLTSRNPVHVNLALQCISNMGSREMVEAFCTDLPKLLVSGETIDFVKQSAALCILKLFRNSPDSFQPGDYASRIVHLLNDSHMGVVTSAASLIEALSKKWPEEYKGAVPLAISRLSRIVTATYTDLQDYTYYFVPAPWLCVKLLRLLQNYPPPDDPSNKARLLECLEGILNKAQDAPKSKKVQHSNAKNAVLFEAIALIIHMDSEPQLLVRACNQLGTFLSHRETNLRYLALESMCLLATSEFSHDAVKKHQDTIINSLKTERDVSVRQRAVDLLYAMCDRSNANQIVAEMLAYLETADYSIREEMVLKVAILAEKYATDYTWYVDVILKLIRIAGDYVSEEVWYRVIQIVVNREDVQGYAAKTVFEALQRPACHENMVKVGGYILGEFGNFIAGDERSTAKIQFELLHSKFHLCSITTRCLLLTTYIKFCNLFPEIKPLVQQVFQTDHNLRNPDAELQQRSIEYLQMTKLASNDVLATILEVMPAFAEKESSLLAKLKKSKPQLEEIEREEKEKRSKPTAVMSEGSTSLVDFDSTNDTTASLADVFANNSGTGLGAQGDEVEIANKDDYLKFVTKSNAILWEDDYIQIGCKLETRNNLGRLGMFYGNKTSQPFNKFTPIITCPGALAVQLQAQAKPVEPVVAAGTQVQQLINFVCVQEFQKMPIMNIKFTFTDRAGAVQNFDKNFYLPLFISKFFEPTNMTSEQFFTRWKSLGAASQEAQKIFNALSPIEHATIESRLKGFGANLLTDVDPNPDNYVCAGIIHTQTQQIGTLIRLEPNKQAKMYRLTIRSSKDTVVQTLVDLLGNQF
Regarding B2, the binding result in assay [6] and in assay [7] was “binds” in each case.

B3: endogenous CED-6 (protein, UniProt O76337 1-492)
chain: T4 sequence
Regarding B3, in assay [6], the binding result is recorded as “binds”.
